Assay results: PMC4336329 (PLoS ONE, 2015)
About 14,000 (4.5%) of roughly 310,000 compounds showed an effect of 50% or more. Effects have a minus sign here. The list shows a part of the results.

Molecular target: human ether-à-go-go-related gene (hERG) potassium channel (human, UniProt Q12809)
Experiment: primary screen, population patch clamp on CHO cells stably expressing hERG
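Further: peak tail current of the secondary pulse compared with the same well before compound.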

Sequence of human ether-à-go-go-related gene (hERG) potassium channel (Q12809 whole entry, looked up): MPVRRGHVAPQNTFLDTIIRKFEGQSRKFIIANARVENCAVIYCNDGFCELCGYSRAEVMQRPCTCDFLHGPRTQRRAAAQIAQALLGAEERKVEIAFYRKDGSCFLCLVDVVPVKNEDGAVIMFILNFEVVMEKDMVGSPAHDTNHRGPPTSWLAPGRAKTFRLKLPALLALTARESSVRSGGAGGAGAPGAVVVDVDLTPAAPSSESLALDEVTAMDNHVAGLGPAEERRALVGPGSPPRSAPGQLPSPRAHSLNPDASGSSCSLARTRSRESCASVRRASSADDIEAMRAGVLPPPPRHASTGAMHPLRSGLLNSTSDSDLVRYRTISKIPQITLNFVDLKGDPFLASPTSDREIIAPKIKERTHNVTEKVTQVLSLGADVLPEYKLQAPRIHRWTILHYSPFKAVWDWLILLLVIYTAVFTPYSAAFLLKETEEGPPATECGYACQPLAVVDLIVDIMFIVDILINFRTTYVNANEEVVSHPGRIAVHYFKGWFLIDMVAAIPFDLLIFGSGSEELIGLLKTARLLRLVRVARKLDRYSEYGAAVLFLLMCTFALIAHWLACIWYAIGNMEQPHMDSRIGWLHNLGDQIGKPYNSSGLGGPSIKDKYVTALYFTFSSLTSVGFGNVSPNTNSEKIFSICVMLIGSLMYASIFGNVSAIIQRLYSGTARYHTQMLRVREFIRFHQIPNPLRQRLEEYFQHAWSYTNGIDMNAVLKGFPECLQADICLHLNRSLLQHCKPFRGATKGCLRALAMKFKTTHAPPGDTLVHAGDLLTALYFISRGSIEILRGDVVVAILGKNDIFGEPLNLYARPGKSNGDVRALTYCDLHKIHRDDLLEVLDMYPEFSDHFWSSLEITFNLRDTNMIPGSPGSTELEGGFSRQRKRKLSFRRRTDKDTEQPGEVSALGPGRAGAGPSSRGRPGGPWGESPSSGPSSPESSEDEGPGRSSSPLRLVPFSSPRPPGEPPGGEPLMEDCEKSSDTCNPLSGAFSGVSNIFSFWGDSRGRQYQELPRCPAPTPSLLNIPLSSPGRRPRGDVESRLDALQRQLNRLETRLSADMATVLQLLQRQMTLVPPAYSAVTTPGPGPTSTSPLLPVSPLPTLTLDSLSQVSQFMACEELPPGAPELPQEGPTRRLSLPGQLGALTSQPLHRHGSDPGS

SMILES | hERG current change (%, negative = inhibition) at 10uM [%]
COC(=O)c1ccc(NC(=O)CC2C(=O)N(C)C(=S)N2Cc2ccc(S(N)(=O)=O)cc2)cc1 (stereo not shown) | -13.1
O=C(CC1CC2CCC1C2)N1CCN(S(=O)(=O)c2ccccc2C(F)(F)F)CC1 (stereo not shown) | -24.9
O=C(O)c1ccccc1-c1cc2ccccc2[nH]1 | 19.7
Cl.FC(F)Sc1ccc(NC2=NCCCCC2)cc1 | -34.9
Cc1cc(SCc2ccccc2F)nc(=O)[nH]1 | 14.3
Cc1[nH]c2ccccc2c1C(=O)CSc1ncn[nH]1 | 18.7
CC(C)n1c(-c2ccccc2)nc(=S)c2c1CCCC2 | 6.54
Cc1cc(NS(=O)(=O)c2ccccc2)c([N+](=O)[O-])cc1C | 0.908
NNC(=O)c1sccc1OCc1ccc(F)cc1 | 2.24
CCN1CCN(CCCNC(=O)c2ccc3c(c2)NC(=O)/C(=C\c2cccc(C)c2)S3)CC1 | -38.6
COCCN(CC(=O)NCC1CCCO1)C(=O)CCC(=O)Nc1ccccn1 (stereo not shown) | 14.8
CCCC1(c2ccccc2)NC(=O)N(CC(=O)NCc2ccc(C)cc2)C1=O (stereo not shown) | 8.24
CCC(C)NC(=O)Cn1cnc2sc(C)c(S(=O)(=O)N3CCN(c4ncccn4)CC3)c2c1=O (stereo not shown) | 20.5
O=[N+]([O-])c1ccc(S(=O)(=O)NCCc2cn3ccccc3n2)cc1 | -40.6
Cc1cccn2c(/C=N/OCc3ccc(F)cc3)c(-c3ccc(Cl)cc3)nc12 | 9.75
CCOc1ccc(C2CC(=O)c3c([nH]c(C(=O)OC)c3C)C2)cc1OC (stereo not shown) | 4.42
COc1cc(C(CC(=O)Nc2cc(C)ccn2)N2Cc3ccccc3C2=O)cc(OC)c1OC (stereo not shown) | 22.3
COc1ccc(NC(=O)CN2C(=O)CSc3ccc(S(=O)(=O)N4CCC(C)CC4)cc32)cc1 | 22.6
CCOC(=O)C1=C(O)/C(=C/c2cc(OC)c(OC)c(OC)c2)SC1=Nc1ccc(OC)cc1 | 10.3
Cc1nnc(N2CCC(C(=O)N3CCCCCC3)CC2)c2nn(-c3ccc(Cl)cc3)c(C)c12 | -65.2
Cc1ccnc2nc(C(=O)OCC(=O)N(CC(C)C)C3CCS(=O)(=O)C3)nn12 (stereo not shown) | 3.36
COCCOC(=O)c1sc2nc[nH]c(=O)c2c1C | 20.6

SMILES | hERG current change (%, negative = inhibition) at 10uM [%]
O=C(NCC(c1ccco1)N1CCN(c2ccc(F)cc2)CC1)c1cccs1 (stereo not shown) | -16.1
O=C1CN(S(=O)(=O)c2ccccc2)c2ccccc2N1 | 11.2
CCC(C)(C)NC(=O)CN(C(=O)c1csnn1)c1cccc2c1CCCC2 | 27.7
CC(C)CCNC(=O)C(c1ccco1)N(Cc1ccc(F)cc1)C(=O)c1snc(C(N)=O)c1N (stereo not shown) | -22.4
CCC(C)NC(=O)c1ccc2c(c1)N(Cc1ccccc1)C(=O)CS2 (stereo not shown) | -6.7
CCn1c(C)nnc1SCC(=O)Nc1cccc(Cl)c1 | -4.96
O=C(COC(=O)c1cc(Br)ccc1O)Nc1ccc2c(c1)OCCO2 | -0.97
O=C1NC(=Nc2cccnc2)S/C1=C/c1ccc(F)cc1 | -4.58
Cc1ccc(N(CC(O)CN2CCCC2)S(=O)(=O)c2ccc(C)cc2)cc1.Cl (stereo not shown) | -76.4
CC(C)c1nc2ccc(C(=O)O)cc2[nH]1 | 12.6
Cc1cc(=O)oc(C)c1C(=O)OCC(=O)c1ccc(Cl)c(Cl)c1 | 5.44
COc1ccc(N=C2SC(C(=O)O)CC(=O)N2C)cc1 (stereo not shown) | 1.4
CSc1ccc(S(=O)(=O)NCC(=O)OCC(=O)N(C)C2CCCCC2)cc1[N+](=O)[O-] | -7.22
CCOCCCNC(=O)c1ccc(/C=C2\Oc3ccccc3N(C)C2=O)cc1 | 26.3
CC(=O)c1c(C)[nH]c(C(=O)NC2CCCCC2)c1C | 2.16
Cc1oc(-c2ccccc2Cl)nc1CN(C)C(C)c1ccon1 (stereo not shown) | -5.27
CCOC(=O)c1nnn(-c2nonc2N)c1CN(CC)CC | -7.44
O=C(CN1CCCCCC1)Nc1ccccc1OC(F)F | -6.05
COc1ccc(NC2c3ccccc3C(=O)N2c2ccccn2)cc1 (stereo not shown) | -25.6
Cc1cccc(C(=O)O)c1NC(=O)c1ccc(F)cc1 | 17.3
O=C(c1scc2c1CCCC2)N1CCOCC1 | 2.25
Cc1ccc(C(=O)NC(c2ccccc2)C(Cl)Cl)cc1 (stereo not shown) | -16.6

SMILES | hERG current change (%, negative = inhibition) at 10uM [%]
O=C(Cc1ccccc1)NCC(=O)N1CCC2(CC1)NCCc1[nH]cnc12 | 23.7
O=C1CC(SCc2nc3ccccc3[nH]2)C(=O)N1c1ccc(F)c(Cl)c1 (stereo not shown) | -17.5
S=C(Nc1ccc2c(c1)OCCO2)Nc1ccc2c(c1)OCO2 | 21.4
CC(Sc1nc2c(cc1C#N)CCCCC2)C(=O)O (stereo not shown) | 10.6
Cc1ccc(NC(=O)Nc2ccccc2C(=O)NCc2ccccc2)cc1 | -2.74
CNC(=O)CCCCCNS(=O)(=O)c1ccc(C)cc1 | -19.6
CCOc1ccc(Cn2nnc(C(=O)Nc3ccc(OC)cc3OC)c2N)cc1 | 12
CCN(CC)CCNC(=O)C1(O)c2cc(Br)ccc2NC(=O)N1c1c(F)cccc1F (stereo not shown) | 14.6
CC(C)C(=O)NC(=O)COC(=O)/C=C/c1cccs1 | 30.2
CCOC(=O)C(=O)Nc1ccc(OCc2ccccc2)cc1 | 20.2
CCn1c(C)nc2cc(S(=O)(=O)N3CCCCC3)ccc21 | -11.6
CC(C(=O)O)N1C(=O)CSC1=S (stereo not shown) | 10.4
O=C(NCC(=O)N1CCN(C(=O)c2ccco2)CC1)c1ccc(Br)cc1 | -53.9
Cc1cc(C)c(-c2csc(NC(=O)CCCc3nc4ccccc4c(=O)[nH]3)n2)c(C)c1 | 3.79
COc1ccc(N2C(=O)CSC23C(=O)Nc2ccccc23)cc1 (stereo not shown) | 1.55
O=C(CSc1ncn[nH]1)NCc1ccc(Cl)cc1 | 14.2
Cc1cc(C(=O)N2CCc3ccccc3C2)no1 | 2.72
O=C(NCCN1CCOCC1)c1ccc(CSc2nc3ccncc3n2Cc2ccc(F)cc2)cc1 | -8.35
CCC/C=C1/CCCOC(C(=O)NCc2ccc(S(C)(=O)=O)cc2)(C(F)(F)F)C1 (stereo not shown) | -1.19
COC(=O)c1ccccc1NC(=O)/C=C/c1cc(OC)c(OC)c(OC)c1 | 1.15
COc1cc(C2NC(=O)NC(c3ccccc3)=C2C(C)=O)c(Br)cc1OCC(N)=O (stereo not shown) | 18.9
COC(=O)C1=C(c2ccc(OC)cc2)OC(=O)C1(C)C | -2.92

SMILES | hERG current change (%, negative = inhibition) at 10uM [%]
COc1cc(/C=N/NC(N)=O)cc(Br)c1OCc1ccc(C)cc1 | 14.3
O=C(Nc1nccs1)c1ccc(CSc2nnnn2-c2ccccc2)cc1 | -25.6
COc1cc(C(=O)NN(CCC#N)C2=NS(=O)(=O)c3ccccc32)cc(OC)c1OC | 13.7
CCOC(=O)N1CCC(NC(=O)CCC(=O)N2CCOc3ccccc32)CC1 | 8.3
CCN(CC)S(=O)(=O)c1ccc(C(=O)NCCN(C)C)cc1.Cl | 10.5
Cc1sc2ncnc(Oc3ccc(-n4ccnc4)cc3)c2c1C | -68.4
CS(=O)(=O)O.O.Oc1ccc2c3c1O[C@H]1c4oc5ccccc5c4C[C@@]4(O)[C@@H](C2)N(CC2CC2)CC[C@]314 | -76.9
O=C(N1CCOCC1)N1CCC(NC(=O)C23CC4CC(CC(C4)C2)C3)CC1 | 24.8
COc1ccc(C(=O)N2CCN(c3ccc(F)cc3)CC2)cc1S(=O)(=O)NC1CC1 | -59.2
Cc1ccccc1NC(=S)N1CCOCC1 | 7.34
Nc1nonc1-c1noc(-c2ccccc2)n1 | 15.7
Cc1cnc(C(=O)NCCc2ccc(Cl)cc2)cn1 | -15.8
Cc1cccc(S(=O)(=O)Nc2nc3ccccc3nc2NCc2ccco2)c1 | -0.911
Cc1csc(NC(=O)C2CC(=O)N(Cc3ccco3)C2)n1 (stereo not shown) | 20.8
Cc1ccc(-c2[nH]nc3c2C(c2ccoc2)C(C#N)=C(N)O3)cc1C (stereo not shown) | 1.83
CC(=O)Oc1cccc(N2C(=O)c3ccc(C(=O)Nc4c[nH]c(=O)[nH]c4=O)cc3C2=O)c1 | 23.1
COc1ccc(NC(=O)C(=O)NCCN2CCN(C(=O)C(c3ccccc3)c3ccccc3)CC2)cc1 | -20.8
CC(C)C(OC(=O)c1cccs1)C(=O)NC1CCCCC1 (stereo not shown) | -13.8
COc1nc(-c2ccccc2)ccc1-c1noc(-c2ccccc2F)n1 | 25.7
O=C(NCc1ccccc1)C1=C[C@@H](c2coc3ccccc3c2=O)C[C@@H](OCc2ccc(CO)cc2)O1 | -33.7
COc1c(Cl)cc(Cl)cc1C(=O)Nc1ccc(CN2CCCCC2)cc1 | -65.1
COC(=O)[C@@]1(Cc2ccc(OC)cc2)[C@@H]2[C@@H](CC(=O)[C@H]2CC(=O)C(=O)N(C)C)CN1C(=O)c1ccccc1 | -42.2
